In PubChem BioAssay AID686978 (National Center for Advancing Translational Sciences (NCATS), 2013):
Values joined by “and” are separate entries in the source; they are usually repeats but may differ in a detail not shown here. Identical values can stand only once. Out of some 420,000 compounds screened, about 64,000 (15%) were called active. Inconclusive results, whose numbers are uncertain, are shown with a selection of clear calls. The call rests on the fitted dose curve; in most records, active means well fitted inhibition curve with a large enough effect; inconclusive means small, poorly fitted or top-dose-only effect; inactive means flat fitted curve, though single readings scatter. No potency is given beside an inconclusive call; the fits are too rough.

Assay: qHTS for Inhibitors of human tyrosyl-DNA phosphodiesterase 1 (TDP1): qHTS in cells in absence of CPT; further: nearly all actives have a fitted effect of over 55% in size
Conditions: DT40 Tdp1-/- hTDP1 cells, no CPT, ATP luminescence, 48 h; activity change, negative = growth inhibition: at 46.2 µM (top of the series) unless noted
Outline: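 Cells were dispensed at 400 per well, compounds added by pin tool, plates incubated ≥48 hr at 37 °C, then CellTiter-Glo added for 30 min at room temperature before luminescence reading. Line: DT40 Tdp1-/- complemented with hTDP1; camptothecin omitted.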
On the % scale 0 is the no-effect control and ±100 the full control effect; potency means the concentration at half of the fitted maximal effect; tags describe the fitted curve by direction and shape.

Row | Structure (SMILES) | Potency | activity change, negative = growth inhibition
1 | COc1ccc2oc(C(=O)OCC(=O)N(C)c3c(N)n(Cc4ccccc4)c(=O)[nH]c3=O)c(C)c2c1 | inconclusive [inhibitor, partial curve] | 
2 | COC(=O)C1=C(C)NC(C)=C(C(=O)OCC2CCCO2)C1c1cccc(Br)c1 (stereo unspecified) | inconclusive [inhibitor, single point] | 
3 | O=C(O)c1cc(S(=O)(=O)NC(Cc2c[nH]c3ccccc23)C(=O)O)ccc1Cl (stereo unspecified) |  | inactive: -16.6%
4 | O=C(NCc1cccnc1)C(C(=O)c1ccc(F)cc1)n1ccccc1=O (stereo unspecified) |  | inactive: -12.3%
5 | Clc1cccc(-n2ncc3c(NCCC4=CCCCC4)ncnc32)c1 | inconclusive [inhibitor, partial curve] | 
6 | COc1ccc(OCCNC(=O)c2ccccc2OCC(=O)N2CCCCC2)cc1 | active: 18.4 µM | 
7 | COc1ccc(OC)c(C(=O)CN2C(=O)N(c3cc(C)cc(C)c3)S(=O)(=O)c3ccccc32)c1 |  | inactive: -5.25%
8 | COC(=O)C1CSC(C(=O)OC)N1C(=O)CN1CCN(c2ccc(OC)cc2)CC1 (stereo unspecified) |  | inactive: -15.3%
9 | CCOC(=O)C1=CCN(S(=O)(=O)c2cccc(Cl)c2)C1c1ccc(C)cc1 (stereo unspecified) | inconclusive [inhibitor, single point] | 
10 | COc1ccc(-c2noc(CCC(=O)NC3CCCCCC3)n2)cc1OC | inconclusive [inhibitor, single point] | 
11 | O=C1OCCN1c1c(-c2ccccc2)c(N2CCOCC2)nc2ccccc12 | active: 14.6 µM | 
12 | CCOC(=O)N1CCC(N2Cc3cccc(C(=O)Nc4ccc(OCC)cc4)c3C2=O)CC1 | inconclusive [inhibitor, single point] | 
13 | COc1ccc(/C=C/c2noc(-c3ccccc3OC(C)=O)n2)cc1 |  | inactive: -13.5%
14 | O=C(O)CCc1cccnc1 | inactive | 
15 | CCOc1ccc(S(=O)(=O)NCCSc2ccccc2)cc1 |  | inactive: 2.24%
16 | CC(C)(C)OC(=O)N1C[C@H](O)C[C@H]1C(=O)OCC(=O)c1ccc([N+](=O)[O-])cc1 | inconclusive [inhibitor, single point] | 
17 | C=CCNC(=O)c1onc(CSc2ccncc2)c1C(=O)NCC=C |  | inactive: -13.5%
18 | Cc1cccc(COCC(Cc2ccccc2)N2CCN(C(=O)c3cccc(C)c3)CCC2=O)c1 (stereo unspecified) | inconclusive [inhibitor, single point] | 
19 | COc1ccccc1/C=C/CN1CCC(Oc2ccc(C(=O)N3CCCCC3)cc2)CC1 | active: 25.9 µM | 
20 | CCCCN1C(=O)C(NC(=O)c2ccc(C(C)(C)C)cc2)(C(F)(F)F)C(C(=O)OC)=C1C (stereo unspecified) | active: 23.1 µM | 
21 | COc1ccc(OC)c(NC(=O)Nc2cccc(OCc3cc(=O)n4cc(C)ccc4n3)c2)c1 | active: 18.4 µM | 
22 | Cc1ccccc1-c1ncc(CN2CCN(C3CCCCC3)C(CCO)C2)cn1 (stereo unspecified) |  | inactive: 9.61%
23 | C=CCN(CC=C)C(=S)NC(=O)c1ccc(-c2ccccc2)cc1 | active: 6.51 µM | 
24 | CCn1c(O)c(C=NCc2ccccc2)sc1=S | inconclusive [inhibitor, single point] | 
25 | Cc1ccccc1OCC(=O)Nc1cccc(NC(=O)c2ccco2)c1 | inconclusive [inhibitor, single point] | 
26 | O=[N+]([O-])c1cc(/C=N/N2CCN(c3ccccc3)CC2)ccc1Cl |  | inactive: -24.3%

Row | Structure (SMILES) | Potency | activity change, negative = growth inhibition
27 | CC(NC(=O)c1cccc(Nc2nc3ccccc3n3nnnc23)c1)c1ccccc1 (stereo unspecified) | active: 7.31 µM | 
28 | COc1ccc(S(=O)(=O)N2CCOC2CNC(=O)C(=O)NCc2ccncc2)cc1OC (stereo unspecified) |  | inactive: -2.25%
29 | CC(C)CNC(=O)NC(=O)CSc1nc2ccccc2n1CC(C)C | active: 23.1 µM | 
30 | O=C(O)c1ccccc1/C=N/N1CCN(C2c3ccccc3-c3ccccc32)CC1 |  | inactive: -15.8%
31 | O=C(CSc1nc2c(c(=O)[nH]1)CCC2)Nc1cccc(O)c1 |  | inactive: -18.3%
32 | COc1ccc(NC(=O)[C@@H]2CC=C[C@@H]3CCN(C4CCCCC4)C(=O)[C@@H]32)cc1 | inconclusive [inhibitor, partial curve] | 
33 | O=C(O)c1ccc(-n2nnc3ccccc32)c([N+](=O)[O-])c1 |  | inactive: 5.98%
34 | CCc1ccc(C(C(=O)NC2CCCC2)N(C(=O)c2csnn2)C2CC2)cc1 (stereo unspecified) | inconclusive [inhibitor, single point] | 
35 | COc1ccc2c(c1)OC13CCCCC1C2C(C(=O)c1ccccc1)C(=O)N3 (stereo unspecified) | inconclusive [inhibitor, single point] | 
36 | CCOc1ccc(-n2ccnc2SCC(=O)NCc2ccc3c(c2)OCO3)cc1 | inconclusive [inhibitor, single point] | 
37 | CCCCCOCC1CC(C/C(C)=N/NC(N)=S)C(=O)O1 (stereo unspecified) | inconclusive [inhibitor, single point] | 
38 | COc1ccc(C(=O)N/C(=C\c2ccco2)C(=O)NCc2ccco2)cc1 |  | inactive: 14.6%
39 | C/C(O)=c1/cnc2nc3ccccc3n2c1=O |  | inactive: -1.58%
40 | COC1=C(C(=O)O)N2C(=O)[C@@H](NC(=O)[C@H](N)C3=CCC=CC3)[C@H]2SC1 |  | inactive: -20.1%
41 | CCCCCC(=O)Nc1nc2ccccc2[nH]1 | active: 8.2 µM | 
42 | CCn1c(=O)c2sccc2n2c(CCCC(=O)Nc3ccc(C)cc3)nnc12 | inconclusive [inhibitor, single point] | 
43 | COc1ccc(CNC(=O)COC(=O)c2cccs2)cc1 |  | inactive: 1.76%
44 | O=C(C[C@H]1C[C@H](C(=O)N2CCOCC2)[C@@]2(CCC3CCCC3)c3[nH]c4cc(-c5ccco5)ccc4c3CCN2C1=O)NCCN1CCOCC1 | inconclusive [inhibitor, single point] | 
45 | CCCNC(=O)CCCCn1c(=S)[nH]c2c([nH]c3ccc(OC)cc32)c1=O | active: 5.8 µM | 
46 | Cc1ccc(O)c(NC2=C(Cl)C(=O)N(Cc3ccccc3)C2=O)c1 | inconclusive [inhibitor, single point] | 
47 | COc1ccccc1NC(=O)CN1CCN(CC(=O)Nc2ccccc2F)CC1 | inconclusive [inhibitor, partial curve] | 
48 | COc1ccc(C(=O)NN(C)c2nc(-c3ccccc3)cc(C)c2S(C)(=O)=O)cc1 | active: 18.4 µM | 
49 | CCOC(=O)NCc1cc(-c2nn(C)c(=O)c3ccccc23)ccc1C | inconclusive [inhibitor, partial curve, poor fit] | 
50 | COc1ccc(OC)c(/C=N/N=C2\SCC(=O)N2Cc2ccco2)c1 | inconclusive [inhibitor, single point] | 
51 | COc1ccc(CC(=O)Nc2c(C(=O)N3CCN(c4ccccc4F)CC3)oc3ccccc23)cc1OC | active: 13 µM | 
52 | N[C@H](C(=O)O)C1C(C(=O)O)C1C(=O)O (stereo partly specified) |  | inactive: 0.637%

Row | Structure (SMILES) | Potency | activity change, negative = growth inhibition
53 | COC(=O)[C@H](Cc1ccc(O)cc1)NC(=O)Cn1cnc2c(SC)nc(N)nc21 |  | inactive: -3.14%
54 | N#Cc1cc(-c2ccccc2)[nH]c1-c1nccc2ccccc12 | inconclusive [inhibitor, single point] | 
55 | Cc1cccc(C)c1N1CCN(S(=O)(=O)N2CCOCC2)CC1 |  | inactive: -27.9%
56 | CCCC(c1nnnn1Cc1ccc(OC)cc1)N1CCN(c2ccccc2)CC1 (stereo unspecified) | active: 23.1 µM | 
57 | O/N=C(\c1ccccc1)C(O)c1ccccc1 (stereo unspecified) |  | inconclusive: -33.5% [inhibitor]
58 | CN(C)S(=O)(=O)c1cccc(C(=O)Nc2n[nH]c(C(F)(F)F)n2)c1 |  | inactive: -1.2%
59 | N#CN=C1SCCS1 | active: 14.6 µM | 
60 | COc1cc(C(=O)N2CCN(S(=O)(=O)c3ccc(C)cc3)CC2)ccc1OCc1c(C)noc1C |  | inconclusive: -37.2% [inhibitor]
61 | OC[C@@H]1CN(Cc2cccc3ccccc23)C[C@H](n2cnc3c(NCc4ccco4)ncnc32)O1 | active: 20.6 µM | 
62 | CCc1ccc2nc(N=C(N)N)nc(C)c2c1 | active: 7.31 µM | 
63 | CCN(C(=O)c1cc2c(=O)oc3ccccc3c2s1)c1cccc(C(F)(F)F)c1 |  | inactive: -4.84%
64 | O=C(CN1CCN(S(=O)(=O)c2ccccc2F)CC1)N1CCc2ccccc2C1 |  | inconclusive: -33.1% [inhibitor]
65 | CC(CC(=O)Nc1nc2ccccc2[nH]1)c1ccccc1 (stereo unspecified) | inconclusive [inhibitor, single point] | 
66 | CSc1nccc(-c2sc(SC)c(C#N)c2-c2ccccc2)n1 |  | inconclusive: -31.3% [inhibitor]
67 | N/C(=N\OC(=O)c1cc([N+](=O)[O-])ccc1Cl)c1cccnc1 | inconclusive [inhibitor, single point] | 
68 | O=S(=O)(c1ccccc1)c1cccc(S(=O)(=O)N2CCCCC2)c1 | inconclusive [inhibitor, single point] | 
69 | Cn1cc(CNCc2ccc(OC(F)(F)F)cc2)c(-c2ccc3c(c2)OCCO3)n1 | active: 2.59 µM | 
70 | COc1ccc(-c2nc(NC(=O)C3CC(=O)N(c4ccc5c(c4)OCCO5)C3)sc2C)cc1 (stereo unspecified) | active: 4.11 µM and active: 6.31 µM | 
71 | Cc1nc(N2CCN(C(=O)c3ccco3)CC2)c2c3c(sc2n1)CCC3 | active: 11.6 µM | 
72 | COc1ccc(/C=C2\SC(=S)N(CCCC(=O)Nc3cccc(C(=O)O)c3)C2=O)cc1OC |  | inactive: 11.5%
73 | Cc1ccc(NC(=O)COC(=O)c2cccnc2Cl)cc1S(=O)(=O)N1CCOCC1 |  | inactive: 10.1%
74 | CCCN(CC1CC1)C(=O)COc1ccccc1C(=O)NCc1ccccc1 | inconclusive [inhibitor, single point] | 
75 | Cc1ccccc1-c1cc(C(=O)NCc2ccco2)nn1CC1CC(c2cccc([N+](=O)[O-])c2)=NO1 (stereo unspecified) | inconclusive [inhibitor, single point] | 
76 | Cc1cccc(-n2nnc(-c3nc(-c4cccs4)no3)c2N)c1C |  | inactive: 5.85%
